Laboratory results: PubChem BioAssay AID588579 (National Center for Advancing Translational Sciences (NCATS), 2011)
Several values for one entry are separate records, joined by “and”; a condition that tells them apart may be missing. Identical values can stand only once. Screen size: about 400,000 compounds; about 2,200 (0.55%) were called active. Not shown: some 1% with an inconclusive outcome. The call rests on the fitted dose curve; in most records, active means well fitted inhibition curve with a large enough effect; inconclusive means small, poorly fitted or top-dose-only effect, or another doubt; inactive means no such curve, though single readings can be large or run the other way. This is a selection; strong and weak results do not stand in their true shares. Where a structure was tested more than once in an assay, its records may differ in their call. Residues, ends and D or L forms follow the SMILES beside them. Groups on a side chain read outwards from the residue. *: point of attachment. Nicotinoyl = O=C(c1cccnc1)*; Cbz = O=C(OCc1ccccc1)*

Target: DNA polymerase kappa (Homo sapiens) (UniProt Q9UBT6)
Experiment: qHTS for Inhibitors of Polymerase Kappa
Conditions: purified Pol kappa, fluorescent DNA synthesis assay, 10 min; series mostly up to 107 µM; activity, negative = inhibition: at the top concentration
Procedure, shortened: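 Enzyme at 10 nM met test compounds for 15 min at room temperature. Substrate addition (50 nM final) began the reaction, which was monitored by fluorescence at 0 and 10 min.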
On the % scale 0 is the no-effect control and ±100 the full control effect; potency means the concentration at half of the fitted maximal effect.

Sequence of UniProt Q9UBT6 (Q9UBT6 whole entry, looked up): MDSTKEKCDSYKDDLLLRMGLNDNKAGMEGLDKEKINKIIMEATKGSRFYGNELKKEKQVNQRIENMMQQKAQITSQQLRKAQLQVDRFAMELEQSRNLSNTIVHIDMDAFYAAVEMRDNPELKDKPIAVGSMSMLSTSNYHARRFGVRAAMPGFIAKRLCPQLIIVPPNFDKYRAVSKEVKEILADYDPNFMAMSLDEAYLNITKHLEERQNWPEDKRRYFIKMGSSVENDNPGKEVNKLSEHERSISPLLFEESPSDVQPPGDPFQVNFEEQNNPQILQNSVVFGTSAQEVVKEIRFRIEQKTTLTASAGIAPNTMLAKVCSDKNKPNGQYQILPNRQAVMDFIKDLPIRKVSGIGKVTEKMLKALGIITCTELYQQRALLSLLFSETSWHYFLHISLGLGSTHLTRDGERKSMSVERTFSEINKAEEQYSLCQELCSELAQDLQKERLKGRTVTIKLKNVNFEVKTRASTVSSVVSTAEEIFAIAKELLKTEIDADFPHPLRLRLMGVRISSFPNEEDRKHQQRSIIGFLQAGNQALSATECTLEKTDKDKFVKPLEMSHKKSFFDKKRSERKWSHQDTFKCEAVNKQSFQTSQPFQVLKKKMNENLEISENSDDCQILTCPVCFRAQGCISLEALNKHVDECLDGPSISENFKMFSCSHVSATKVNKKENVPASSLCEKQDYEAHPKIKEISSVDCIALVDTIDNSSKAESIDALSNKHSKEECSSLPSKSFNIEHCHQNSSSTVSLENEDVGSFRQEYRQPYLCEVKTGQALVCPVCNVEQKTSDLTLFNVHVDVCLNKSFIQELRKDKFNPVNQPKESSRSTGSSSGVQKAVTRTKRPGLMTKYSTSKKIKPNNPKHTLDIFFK

activity, negative = inhibition, inactive:
Cc1nc2c(OCc3ccccc3)cccn2c1CC#N -7.9% [at 19.4 µM], NC(=O)CSc1ncc2c(n1)-c1ccccc1N(Cc1cccc(F)c1)S2(=O)=O 25.6%, C[C@@H]1C(c2ccccc2)=NN(c2ccc(Br)cc2)[C@H]1C(=O)N1CCOC1=O -0.702%, COc1ccc(NC(=O)/C(C#N)=C/C=C/c2ccco2)cc1 -12.5%, NS(=O)(=O)c1cc2c(cc1C(F)(F)F)NC(Cc1ccccc1)NS2(=O)=O (stereo unspecified) 13.8%, CSCC[C@H](NC(=O)[C@H](CCCNC(=N)N)NC(=O)[C@H](Cc1ccc(O)cc1)NC(=O)[C@@H]1CCCN1C(=O)CNC(=O)[C@H](CCC(=O)O)NC(=O)[C@H](CC(=O)O)NC(=O)[C@H](CCCCN)NC(=O)[C@H](CCCCN)NC(=O)[C@H](CCC(=O)O)NC(=O)[C@H](C)N)C(=O)N[C@@H](CCC(=O)O)C(=O)N[C@@H](Cc1cnc[nH]1)C(=O)N[C@@H](Cc1ccccc1)C(=O)N[C@@H](CCCNC(=N)N)C(=O)N[C@@H](Cc1c[nH]c2ccccc12)C(=O)NCC(=O)N[C@@H](CO)C(=O)N1CCC[C@H]1C(=O)N1CCC[C@H]1C(=O)N[C@@H](CCCCN)C(=O)N[C@@H](CC(=O)O)C(=O)O 15.6% [at 60.1 µM], COc1cccc(NC(=O)CCNS(=O)(=O)c2ccc(Br)s2)c1 -16%, NS(=O)(=O)c1cc2c(cc1Cl)N[C@@H]([C@@H]1C[C@@H]3C=C[C@H]1C3)NS2(=O)=O -9.54% [at 19.4 µM], CC(C)C[C@H](NC(=O)[C@@H]1O[C@H]1C(=O)O)C(=O)NCCCCN=C(N)N 13%, Cc1ccc(S(=O)(=O)N2CCC(=O)N(CCOC(=O)Nc3cc(C)cc(C)c3)CC2)cc1 -3.13%, CC(C)(C)NC[C@H](O)COc1cccc2c1CCC(=O)N2 -3.86% [at 12 µM], CCCCCCCCCCCCN1[C@@H](CC(=O)O)c2cc(C(F)(F)F)ccc2S1(=O)=O -16.2%, COC(=O)c1scc(-c2ccc(C)cc2)c1S(=O)(=O)N1CCN(c2ccc(OC)cc2)CC1 24.9%, C[C@@H](O)CC(=O)O -6.98%, O=C(NCc1ccc(Cl)cc1)c1ccc(Br)o1 -19.7%, CC(=O)N(O)C/C=C/c1cccc(Oc2ccccc2)c1 12.4% [at 60.1 µM], COc1cc(/C=C(/C#N)C(=O)Nc2cc(C(F)(F)F)ccc2Cl)ccc1OCC(=O)Nc1cccc(C(F)(F)F)c1 -4.96%, C[C@@H]1O[C@@H](OC2O[C@@H](COc3cc(O)c4c(=O)cc(-c5ccc(O)cc5)oc4c3)[C@@H](O)[C@@H](O)[C@@H]2O)[C@H](O)[C@H](O)[C@H]1O (stereo partly specified) 12.5% [at 60.1 µM], O=C1OCCN1C(=O)[C@H]1[C@H](c2ccc(F)cc2)C(c2ccccc2)=NN1c1ccc(Br)cc1 -20.5%, CCSc1ccc2c(c1)N(CCCN1CCN(C)CC1)c1ccccc1S2 -14.4%, CC[C@@H]1C(c2cccc(Cl)c2)=NN(c2ccc(Br)cc2)[C@H]1C(=O)N1CCOC1=O 0.969%, CC[C@H](C)[C@H]1O[C@]2(CC[C@@H]1C)C[C@@H]1C[C@@H](CC=C(C)[C@@H](O[C@H]3C[C@H](OC)[C@@H](O[C@H]4C[C@H](OC)[C@@H](O)[C@H](C)O4)[C@H](C)O3)[C@@H](C)C=CC=C3CO[C@@H]4[C@H](O)C(C)=C[C@@H](C(=O)O1)[C@]34O)O2 -5.17%, CC[C@]1(O)C[C@@H]2CN(CCc3c([nH]c4ccccc34)[C@@](C(=O)OC)(c3cc4c(cc3OC)N(C)[C@H]3[C@@](O)(C(=O)OC)[C@H](OC(C)=O)[C@]5(CC)C=CCN6CC[C@]43[C@@H]65)C2)C1 -28.5%, NCCCCCN 14.1% [at 60.1 µM], NC(C(=O)NC1C(=O)N2C(C(=O)O)=C(Cl)CSC12)c1ccccc1 (stereo unspecified) -15.8% [at 60.1 µM], Cc1cc2oc(=O)cc(-c3ccccc3)c2c(C)c1-c1ccc(C(F)(F)F)cc1 -12.5%, COc1ccccc1CNC(=O)[C@H](NC(=O)C1CCN(C(=O)[C@@H](N)CCSC)CC1)C(C)C 24.5%, Cc1cccc(C2=NN(c3ccccc3)[C@H](CO)[C@H]2c2ccccc2)c1 2.28%, CC(=O)N[C@@H](Cc1ccc(O)cc1)C(=O)N[C@H](C(=O)N[C@@H](C)C(=O)N[C@H](C=O)CC(=O)O)C(C)C 17% [at 60.1 µM], Cn1nnnc1SCC1=C(C(=O)O)N2C(=O)[C@@H](NC(=O)[C@@H](O)c3ccccc3)[C@@H]2SC1 -15.8% [at 12 µM], CC[C@H](C)[C@H](NC(=O)[C@@H](NC(=O)[C@@H](NC(=O)[C@H](CCC(=O)O)NC(=O)[C@H](CCC(=O)O)NC(=O)[C@H](CCC(=O)O)NC(=O)[C@H](C)NC(=O)[C@@H](N)CC(C)C)C(C)C)C(C)C)C(=O)N[C@@H](CCCNC(=N)N)C(=O)N[C@@H](CO)C(=O)N[C@@H](C)C(=O)N[C@@H](CC(N)=O)C(=O)N[C@@H](Cc1ccccc1)C(=O)N[C@H](C(=O)N[C@@H](CC(=O)O)C(=O)N[C@@H](CC(N)=O)C(=O)O)[C@@H](C)O 20.6% [at 60.1 µM], Cc1c(C)c2c(c(C)c1O)CCC(C)(CCCC(C)CCCC(C)CCCC(C)C)O2 (stereo unspecified) -6.48% [at 19.4 µM], CC[C@H](C)[C@H](NC(=O)[C@@H]1CCCN1C(=O)[C@H](Cc1cnc[nH]1)NC(=O)[C@H](CCCCNC(=O)[C@H](CCCN=C(N)N)NC(=O)OCc1ccccc1)NC(=O)[C@H](Cc1ccc(O)cc1)NC(=O)c1cccnc1)C(=O)O (Nicotinoyl-YK([Arg-Cbz])HPI-OH) 13.3% [at 60.1 µM], COC(=O)C1OC(=O)C2OC23[C@]2(C)C(O)CC4C(C)(C)C(OC(C)=O)CC(OC(C)=O)[C@@]4(C)C2CC[C@@]13C (stereo partly specified) -3.2% [at 60.1 µM], OCC(O)C(O)C(O)CO (stereo unspecified) -2.18% [at 60.1 µM], CCOC(=O)/C(=C\c1ccc(N2CCC(c3ccccc3)=N2)cc1)C(C)=O -5.25%, CN1C=CC(=C2C=CN(C)C=C2)C=C1 13.2% [at 60.1 µM], CC[C@@]1([C@@H]2O[C@@H]([C@H]3O[C@@](O)(CO)[C@H](C)C[C@@H]3C)C[C@@H]2C)CC[C@H]([C@]2(C)CC[C@]3(C[C@H](O)[C@@H](C)[C@@H]([C@@H](C)[C@@H](OC)C(C)C(=O)O)O3)O2)O1 (stereo partly specified) -12.5% [at 60.1 µM], CCOC(=O)C1=C(c2ccccc2)c2ccc(OC)cc2N(S(=O)(=O)C(F)(F)F)C1C(=O)OCC (stereo unspecified) -8.32%, CC(C)CCCC(C)C1CCC2C3CC=C4CC(O)CCC4(C)C3CCC12C (stereo unspecified) -10.5% [at 19.4 µM], NC(=O)[C@@H]1CCCN1C(=O)C(Cc1cnc[nH]1)NC(=O)C1CCC(=O)N1 (stereo partly specified) 15.5% [at 60.1 µM], CC(C)Cc1ccc([C@@H](C)C(=O)NS(C)(=O)=O)cc1 8.88% [at 60.1 µM]

Potency, inactive:
O=C(NCc1ccccc1)C1(C(F)(F)F)C/C(=C/CCO)CCCO1 (stereo unspecified), Clc1ccc2ncnc(NCc3ccc4c(c3)OCO4)c2c1, C[C@H]1c2cccc(O)c2C(O)=C2C(=O)[C@]3(O)C(O)=C(C(N)=O)C(=O)[C@@H](N(C)C)[C@@H]3[C@@H](O)[C@@H]21, C=CCc1ccccc1OCC(O)CNC(C)C (stereo unspecified), Cc1c(O)cccc1C(=O)N[C@@H](CSc1ccccc1)[C@H](O)CN1C[C@H]2CCCC[C@H]2C[C@H]1C(=O)NC(C)(C)C, Cc1c(C)c2c(c(C)c1O)CC[C@@](C)(CCC[C@H](C)CCC[C@H](C)CCCC(C)C)O2

Potency, active:
O=C1NN(c2cccc(Br)c2)C(=O)/C1=C/c1ccc(-c2cc([N+](=O)[O-])ccc2O)o1 79.4 µM, O=C1/C(=C\c2ccco2)CCC/C1=C\c1ccco1 8.91 µM, Cc1c(Cl)cccc1NS(=O)(=O)c1ccc2c(c1)C1C=CCC1C(c1ccc(C(=O)O)cc1)N2 (stereo unspecified) 2.82 µM, O=C(/C=C/c1ccc(/C=C/C(=O)Nc2ccc(C3=NCCN3)cc2)cc1)Nc1ccc(C2=NCCN2)cc1 18.9 µM, Cc1c(C(=O)O)cccc1-c1ccc(/C=N/n2cnnc2)o1 89.1 µM, O=C(O)CCCNC(=O)/C=C/c1ccco1 50.1 µM, CCn1c(SCC(=O)N/N=C/C=C/c2ccco2)nnc1-c1ccccc1 79.4 µM, CN(C)CCNc1ccc2ncn3c4ccc(O)cc4c(=O)c1c23 22.4 µM, CC(C)CC1=C/C(=C/c2ccc(-c3ccccc3)o2)C(=O)O1 44.7 µM, O=C(O)Cc1ccc(S(=O)(=O)N2CCCC2)s1 79.4 µM, Nc1ccc2nc(-c3ccc(-c4nc5ccc(N)cc5[nH]4)cc3)[nH]c2c1 50.1 µM, CCCCCCCC/C=C\CCCCCCCCCCCC(=O)O 10.6 µM, NN=C1c2ccccc2C(=O)C1C(=O)C(c1ccccc1)c1ccccc1 (stereo unspecified) 22.4 µM, Cc1ccc2nc(-c3ccc(NC(=O)CN4CCN(C(=O)c5ccco5)CC4)cc3)sc2c1 44.7 µM, N#Cc1ccc[n+](CC(=O)c2ccc(O)c(O)c2)c1 0.891 µM, CN(C)/C=C/C=C1C(=O)CCCC1=O 79.4 µM, NS(=O)(=O)c1ccc(N/N=C/c2ccc(O)c(O)c2O)c([N+](=O)[O-])c1 10 µM, CC(=C/C(=O)O)/C=C/c1ccc(Cl)o1 25.1 µM, C=CCOC(=O)c1cc(-c2ccc(/C=C3\C(=O)NC(=O)C(C#N)=C3C)o2)ccc1Cl 28.2 µM, CC/C=C\C/C=C\C/C=C\CCCCCCCC(=O)O 3.16 µM and 28.2 µM, Oc1cc(O)c2c(c1)OC(c1ccc(O)c(O)c1)C(O)C2 (stereo unspecified) 3.16 µM, Cc1ccc(C)n1-c1nc(=S)[nH][nH]1 28.2 µM, CC(=O)c1ccc(S(=O)(=O)N2Cc3ccccc3CC2C(=O)O)cc1 (stereo unspecified) 50.1 µM
